# Reference: the antibiotic and cytotoxicity screens of Wong et al. (2023)
# The other results are listed elsewhere or left out.
# Columns and labels:
# HSkMC = human skeletal muscle cells; assay: cytotoxicity call (relative viability < 0.9); conditions: 10 µM
# S. aureus RN4220 = assay: growth inhibition call (relative growth <= 0.2); conditions: 50 µM
Compound,cytotoxicity call (HSkMC),growth inhibition call (S. aureus RN4220)
Cc1ccc(S(=O)(=O)N[C@@H](Cc2ccccc2)C(=O)NCCn2cc(CN3C(=O)COC[C@H]3c3ccccc3)nn2)cc1,inactive,inactive
O=C(CN1CCOCC1)N/N=C/c1ccc([N+](=O)[O-])o1,inactive,active
C[C@@H]1CCCCO[C@H](CN(C)S(=O)(=O)c2ccccc2)[C@@H](C)CN([C@@H](C)CO)C(=O)c2cc(NC(=O)c3ccccc3)ccc2O1,inactive,inactive
Cc1ccc(S(=O)(=O)N2CCO[C@@H]2CNC(=O)C(=O)NCc2ccccn2)cc1,inactive,inactive
C[C@@H]1CN([C@@H](C)CO)C(=O)c2cc(NS(=O)(=O)c3cn(C)cn3)ccc2O[C@@H](C)CCCCO[C@H]1CN(C)C,inactive,inactive
COc1cccc(C(=O)Nc2ccc3c(c2)C(=O)N(C)[C@@H]2CC[C@H](CC(=O)NCCCN4CCOCC4)O[C@@H]2CO3)c1,inactive,inactive
COc1ccc(S(=O)(=O)N(C)C[C@@H]2Oc3ccc(NS(=O)(=O)c4c(C)noc4C)cc3C(=O)N([C@@H](C)CO)C[C@@H]2C)cc1,inactive,inactive
CN(C)CC#Cc1ccc([C@@H]2[C@@H](CO)N3C(=O)CN(C(=O)c4cccnc4)C[C@@H]23)cc1,inactive,inactive
C[C@H](CO)N1C[C@H](C)[C@H](CN(C)C(=O)Nc2cccc3ccccc23)Oc2ccc(NS(=O)(=O)c3ccccc3)cc2C1=O,inactive,inactive
C[C@H]1CCCCO[C@H](CN(C)Cc2ccccc2)[C@@H](C)CN([C@@H](C)CO)C(=O)c2cc(NS(=O)(=O)c3ccc(Cl)cc3)ccc2O1,inactive,inactive
O=C(CN1CCOCC1)N[C@H]1CC[C@H](CCn2cc(C3CCCC3)nn2)O[C@@H]1CO,inactive,inactive
C[C@@H]1CCCCO[C@@H](CN(C)Cc2ccccc2)[C@@H](C)CN([C@@H](C)CO)C(=O)c2cc(NC(=O)Cc3ccccc3)ccc2O1,inactive,inactive
C[C@@H]1CCCCO[C@H](CN(C)C(=O)Nc2ccccc2)[C@H](C)CN([C@H](C)CO)C(=O)c2cc(NC(=O)CCC(F)(F)F)ccc2O1,inactive,inactive
C/C=C/c1ccc([C@@H]2[C@H](CO)N(S(=O)(=O)Cc3ccccc3)C23CN(C(=O)C2CCOCC2)C3)cc1,inactive,inactive
C=CCOc1ccc(C(=O)C2=C(O)C(=O)N(CCCN3CCOCC3)[C@@]23C(=O)N(C)c2ccccc23)cc1C,inactive,inactive
C[C@@H]1CCCCO[C@H](CN(C)S(=O)(=O)c2ccc(F)cc2)[C@H](C)CN([C@@H](C)CO)C(=O)c2cc(NC(=O)CCC(F)(F)F)ccc2O1,inactive,inactive
COCCOC(=O)N1C(=O)[C@@]2(c3ccccc31)[C@H](C(=O)Nc1nc3ccccc3s1)[C@H]1C(=O)O[C@H](c3ccccc3)[C@H](c3ccccc3)N1[C@@H]2c1ccc(OCCO)cc1,inactive,inactive
C[C@H](CO)N1C[C@H](C)[C@@H](CN(C)Cc2ccc3c(c2)OCO3)OCCCC[C@H](C)Oc2ccc(NC(=O)Nc3cccc4ccccc34)cc2C1=O,active,inactive
Cc1noc(C)c1S(=O)(=O)Nc1ccc2c(c1)C(=O)N([C@@H](C)CO)C[C@@H](C)[C@@H](CN(C)S(=O)(=O)c1ccccc1)O2,inactive,inactive
Cc1noc(C)c1S(=O)(=O)Nc1ccc2c(c1)C(=O)N([C@H](C)CO)C[C@H](C)[C@H](CN(C)C(=O)Nc1cccc3ccccc13)OCCCC[C@@H](C)O2,inactive,inactive
